The other results are listed elsewhere or left out. At the low end of the ranking the order means little.

The experiment concerns the target T1, GST-Rok-C97-191 (UniProt O34857).
T1 sequence: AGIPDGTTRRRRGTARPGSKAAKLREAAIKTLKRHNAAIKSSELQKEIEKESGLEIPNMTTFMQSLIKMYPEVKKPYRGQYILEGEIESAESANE
Nature of the experiment: protein binding microarray.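 Also: rank score from −0.5 (least bound) to 0.5 (best bound).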 The following applies: Rok is a gene silencer of Bacillus subtilis; high values mean tight binding; most listed sequences are background and not binding sites; double strand, one strand shown.
For the sequence CCCTACTA, the binding signal is 0.124 E-score.
The sequence TTGATCAA showed a binding signal of -0.0674 E-score.
Next, AAAAGTAC: 0.279 E-score; GATGATCC: -0.215 E-score.
With ACACGAAC, the binding signal turned out to be 0.0842 E-score.
With CGCCAGAG, the binding signal is -0.218 E-score.
In turn, AAAGAGTG registered a binding signal of 0.00883 E-score.
ATAACCCA showed a binding signal of -0.0659 E-score.
Turning to ACATTCCG, the binding signal was determined as 0.156 E-score.
Take CTCGAAAG: the binding signal is -0.0292 E-score.
Sequence AGTATTAT registered a binding signal of 0.32 E-score.
Next, AATACGCG: 0.19 E-score; TCCTGTCA: -0.118 E-score; ACCGTCCT: -0.0376 E-score.
Consider CTTCCGAC, for which the binding signal was -0.0925 E-score.
Then AACCCTGA, with -0.173 E-score.
Then ATAACAGC, with 0.11 E-score.
CCTCGACA: the binding signal is -0.249 E-score.
Next, CACAACTC: -0.0508 E-score; CCATACAA: 0.105 E-score.
Consider ATGTAGGC, for which the binding signal was determined as 0.0299 E-score.
GTGAGGTA showed a binding signal of 0.232 E-score.
Turning to AGACTGAG, the binding signal was -0.118 E-score.
GACCTACA came in with a binding signal of -0.0611 E-score.
Consider ATCGGCCC, for which the binding signal was -0.1 E-score.
For GAGAAGGC, the binding signal is -0.228 E-score.
TGCACTAA yielded a binding signal of 0.0891 E-score.
CATGAGTC had a binding signal of 0.00281 E-score.
Sequence GAACGGCC gave a binding signal of -0.0958 E-score.
As for ATGACCCC, the binding signal is -0.0612 E-score.
Consider CAACTGAA, for which the binding signal stood at 0.0728 E-score.
Then CCGTAAGC, with -0.0964 E-score.
Regarding ACAGAGTA, the binding signal turned out to be 0.101 E-score.
Regarding TGGTATAA, the binding signal was determined as 0.289 E-score.
CCCGGAAA: the binding signal was -0.111 E-score.
For the sequence CAAATGCC, the binding signal worked out at 0.0992 E-score.
Sequence AACTATTG had a binding signal of 0.291 E-score.
ACCGCAGG returned a binding signal of -0.024 E-score.
Next, CCCCTATC: -0.22 E-score; CTATGGAA: 0.039 E-score; CGCTTCTA: -0.0615 E-score.
Sequence AATCGTAC showed a binding signal of 0.0782 E-score.
Take GCATCCAC: the binding signal was -0.165 E-score.
In turn, GAAGACAA returned a binding signal of -0.119 E-score.
Sequence AGCCCAGC came in with a binding signal of -0.298 E-score.
For GTACGGAC, the binding signal is -0.13 E-score.
The sequence CAAGGTTA came in with a binding signal of -0.115 E-score.
In turn, AGGTTTCC showed a binding signal of -0.151 E-score.
Turning to CCGAGTAA, the binding signal is -0.0812 E-score.
GGCTTAAA gave a binding signal of -0.15 E-score.
TGGTACCA registered a binding signal of 0.148 E-score.
Sequence ACTCCGCT came in with a binding signal of -0.336 E-score.
Sequence GCAATCAA came in with a binding signal of 0.0979 E-score.
Sequence CCACTCAA gave a binding signal of -0.0786 E-score.
The sequence GAAGAGTC displayed a binding signal of -0.132 E-score.
For GGCTGTGA, the binding signal was found to be 0.0766 E-score.
Take ACGGGGAT: the binding signal turned out to be 0.000367 E-score.
Sequence ATCTCTCC showed a binding signal of -0.281 E-score.
Regarding AGCCGGTG, the binding signal is -0.27 E-score.
CGTGATAC yielded a binding signal of 0.0771 E-score.
The sequence ATCCACCG yielded a binding signal of -0.0931 E-score.
For the sequence AGCCTCAG, the binding signal is -0.106 E-score.
The sequence GGGTACAC returned a binding signal of -0.0448 E-score.
The sequence CCGCCAGA yielded a binding signal of -0.192 E-score.
On to GGGTGAGA, for which the binding signal was -0.123 E-score.
The sequence CCTATCGA returned a binding signal of 0.117 E-score.
As for GCGCGACA, the binding signal is -0.0167 E-score.
On to GCGATGAC, for which the binding signal was -0.188 E-score.
Next, ATGTGGTC: -0.139 E-score; AGGATTAA: 0.0707 E-score.
Then ATGGATCG, with 0.0585 E-score; and CACATCGG, with -0.187 E-score.
Next, GCAACCCA: -0.00176 E-score.
CACGATGC: the binding signal is -0.0892 E-score.
In turn, GATACGGC displayed a binding signal of -0.0947 E-score.
For the sequence TACCGGGA, the binding signal is -0.0154 E-score.
Next, ACACTACT: 0.18 E-score.
On to CTATGGCC, for which the binding signal is -0.0446 E-score.
Then CACACTCC, with -0.365 E-score.
For ACGATCTC, the binding signal is -0.183 E-score.
In turn, AATATCAG registered a binding signal of 0.11 E-score.
The sequence ACACACTC came in with a binding signal of -0.127 E-score.
In turn, TCAGTCCA came in with a binding signal of -0.125 E-score.
The sequence ATCTAACC yielded a binding signal of 0.125 E-score.
Then TGTCCAAA, with 0.0356 E-score; and GAAGGTAA, with 0.0688 E-score; and AAACCTGG, with -0.125 E-score.
As to ACCAGGGT, the binding signal is -0.0891 E-score.
Sequence CCTCCTTC showed a binding signal of -0.178 E-score.
Regarding GGTGGAGA, the binding signal is -0.00514 E-score.
AAGGTTCT registered a binding signal of -0.0457 E-score.
Regarding CAACATCG, the binding signal was -0.0362 E-score.
Sequence CAATCCTG registered a binding signal of -0.137 E-score.
For AGCAGTAA, the binding signal stood at 0.14 E-score.
In turn, CACCAAAC gave a binding signal of 0.211 E-score.
The sequence CCTCCAGA came in with a binding signal of -0.16 E-score.
Consider GAGGACTA, for which the binding signal turned out to be 0.0339 E-score.
Next, CTAGGGAG: -0.192 E-score; GACATGTA: 0.161 E-score; CCCGGGCG: -0.327 E-score.
On to AGACTGTG, for which the binding signal is -0.248 E-score.
Next, TCACGGAA: -0.117 E-score; AAGTAGGC: 0.0185 E-score; ACGGTACA: 0.187 E-score.
Sequence ACATTCGT came in with a binding signal of 0.0623 E-score.
TAAATTTA showed a binding signal of 0.405 E-score.
For ACGTGGTA, the binding signal stood at 0.187 E-score.
As to AGGGACGC, the binding signal was -0.331 E-score.
Consider CGATTGGA, for which the binding signal is -0.192 E-score.
The sequence AGATTGTC came in with a binding signal of 0.0556 E-score.
TCGAACGA returned a binding signal of 0.00801 E-score.
Sequence AATTCGTA had a binding signal of 0.2 E-score.
In turn, TCAGGAAA showed a binding signal of 0.0347 E-score.
In turn, AGGAGCCC showed a binding signal of -0.4 E-score.
For AAATTCGC, the binding signal is 0.126 E-score.
Regarding TATAAATA, the binding signal was found to be 0.381 E-score.
Sequence CTCTCGCA showed a binding signal of -0.118 E-score.
As for CCTGATCG, the binding signal is -0.0596 E-score.
Next, ACAGCCAC: -0.145 E-score; GGGGGTAC: -0.318 E-score; ACTTAGAA: 0.16 E-score.
With ACACTTAG, the binding signal was determined as 0.155 E-score.
Sequence CCCATCGG came in with a binding signal of -0.353 E-score.
Take CACACGAC: the binding signal stood at 0.0658 E-score.
CACCTATC yielded a binding signal of -0.0169 E-score.
As to TGGGATAA, the binding signal amounted to 0.114 E-score.
The sequence AGTACGCA came in with a binding signal of 0.072 E-score.
Then TAAGTCAA, with -0.0154 E-score.
Next, AGGACATG: -0.0776 E-score; GAGCGGTA: 0.105 E-score.
In turn, CTCCATTC had a binding signal of 0.0954 E-score.
The sequence ACTCAGTC came in with a binding signal of -0.17 E-score.
Then GACTTATA, with 0.279 E-score; and CTCGTAGA, with 0.121 E-score.
In the case of AAATGTAC, the binding signal was found to be 0.364 E-score.
On to ACTAGCGG, for which the binding signal stood at 0.0831 E-score.
CTTGTCAA registered a binding signal of -0.0147 E-score.
Take GGACCGCC: the binding signal was -0.258 E-score.
Turning to TGCGTACA, the binding signal was -0.12 E-score.
Sequence CCAACCAA displayed a binding signal of 0.0659 E-score.
The sequence AGCGGCGA returned a binding signal of -0.117 E-score.
In the case of CCCCATGA, the binding signal was -0.0466 E-score.
In turn, CCGAGACC displayed a binding signal of -0.201 E-score.
The sequence ATAATTAG gave a binding signal of 0.354 E-score.
GAGAAGTA registered a binding signal of 0.197 E-score.
ACGGTTCG showed a binding signal of -0.141 E-score.
Sequence GGGTAGTA gave a binding signal of 0.3 E-score.
The sequence GAGTGTGA showed a binding signal of -0.0487 E-score.
In turn, ATCATACG showed a binding signal of 0.214 E-score.
Turning to CTACTGGC, the binding signal was determined as 0.0387 E-score.
Consider CAACAAAG, for which the binding signal was 0.0237 E-score.
In turn, ATTCCTTC registered a binding signal of -0.103 E-score.
Then CGATTGAA, with 0.0889 E-score; and GGTCTTCA, with -0.231 E-score.
In turn, GAAACACC came in with a binding signal of 0.019 E-score.
Turning to ATAGGGAC, the binding signal is -0.176 E-score.
Consider CTGATGAC, for which the binding signal was -0.111 E-score.
AAACGTCG: the binding signal was -0.103 E-score.
In turn, CAAGTCTC displayed a binding signal of -0.316 E-score.
In turn, ATGGCTCG displayed a binding signal of 0.0233 E-score.
On to ACGTGTAA, for which the binding signal is -0.0117 E-score.
Next, AAAACGCG: -0.0858 E-score.
ACAGAACA had a binding signal of -0.15 E-score.
ACTTCGCC had a binding signal of 0.137 E-score.
The sequence AACGTGAG showed a binding signal of -0.0637 E-score.
On to AGCGGGCG, for which the binding signal was -0.281 E-score.
Then CCCGCGGG, with -0.198 E-score; and ATTCCTAA, with 0.045 E-score.
The sequence AGGCTAAG displayed a binding signal of -0.133 E-score.
As for CGTGTGCC, the binding signal is -0.151 E-score.
On to CCGCCGAA, for which the binding signal is -0.158 E-score.
In turn, ACCCCGCT had a binding signal of -0.104 E-score.

The values above are taken from PMC6212790.
